Results reported in publication PMC4650713, “Crystal structure of Bax bound to the BH3 peptide of Bim identifies important contacts for interaction” (Cell Death & Disease, 2015).

Biological target: the molecule itself
Test: SEC; BaxΔC21 (2 mg/ml) with a twofold molar excess of BH3 peptide in TBS with 1% CHAPS, 1 h at room temperature, Superdex75 in TBS

B1: BaxΔC21 (domain or fragment)
chain: not shown
notes: Bax truncated at the C terminus by 21 amino acids, with C62S and C126S; its C-terminal residues are named as 168–171; also called Bax C62S C126S truncated at the C terminus by 21 amino acids
stoichiometry N: 2
